Measurements published in the supplement of paper PMC8728848.
Some of the results follow.

Legend:
Experiment in all cases: glycan array binding signal (z-score within array); higher = stronger binding
Details in all cases: glycan notation: IUPAC condensed, linker removed
[1] = target: Fuc(a1-2)[Gal(a1-3)]Gal(b1-4)GlcNAc(b1-2)Man(a1-3)[Fuc(a1-2)[Gal(a1-3)]Gal(b1-4)GlcNAc(b1-2)Man(a1-6)]Man(b1-4)GlcNAc(b1-4)[Fuc(a1-6)]GlcNAc
In short: (§1)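 The binding signal is a Z-score computed within each array. Data were drawn from 3228 arrays in the Consortium for Functional Glycomics database, restricted to those with a known protein sequence. Scores were averaged over arrays of the same protein sequence at different concentrations or buffers, and over linkers, and negative values can be taken as non-binding.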

[2] = target: Fuc(a1-2)[Gal(a1-3)]Gal(b1-4)GlcNAc(b1-3)GalNAc
In short: as §1

[3] = target: Fuc(a1-2)[Gal(a1-3)]Gal(b1-4)GlcNAc(b1-3)[Fuc(a1-2)[Gal(a1-3)]Gal(b1-4)GlcNAc(b1-6)]GalNAc
In short: as §1

[4] = target: Fuc(a1-2)[Gal(a1-3)]Gal(b1-4)GlcNAc(b1-6)GalNAc
In short: as §1

[5] = target: Fuc(a1-2)[Gal(a1-3)]Gal(b1-4)[Fuc(a1-3)]Glc
In short: as §1

[6] = target: Fuc(a1-2)[Gal(a1-3)]Gal(b1-4)[Fuc(a1-3)]GlcNAc
In short: as §1

[7] = target: Fuc(a1-2)[Gal(a1-3)]Gal(b1-4)[Fuc(a1-3)]GlcNAc(b1-3)GalNAc
In short: as §1

[8] = target: Fuc(a1-2)[Gal(a1-4)]Gal(b1-4)GlcNAc
In short: as §1

[9] = target: Fuc(a1-2)[GalNAc(a1-3)]Gal
In short: as §1

[10] = target: Fuc(a1-2)[GalNAc(a1-3)]Gal(b1-3)GalNAc(a1-3)[Fuc(a1-2)]Gal(b1-4)GlcNAc
In short: as §1

[11] = target: Fuc(a1-2)[GalNAc(a1-3)]Gal(b1-3)GalNAc(b1-3)Gal(a1-4)Gal(b1-4)Glc
In short: as §1

[12] = target: Fuc(a1-2)[GalNAc(a1-3)]Gal(b1-3)GlcNAc
In short: as §1

[13] = target: Fuc(a1-2)[GalNAc(a1-3)]Gal(b1-3)GlcNAc(b1-2)Man(a1-3)[Fuc(a1-2)[GalNAc(a1-3)]Gal(b1-3)GlcNAc(b1-2)Man(a1-6)]Man(b1-4)GlcNAc(b1-4)GlcNAc
In short: as §1

[14] = target: Fuc(a1-2)[GalNAc(a1-3)]Gal(b1-3)GlcNAc(b1-2)Man(a1-3)[Fuc(a1-2)[GalNAc(a1-3)]Gal(b1-3)GlcNAc(b1-2)Man(a1-6)]Man(b1-4)GlcNAc(b1-4)[Fuc(a1-6)]GlcNAc
In short: as §1

[15] = target: Fuc(a1-2)[GalNAc(a1-3)]Gal(b1-3)GlcNAc(b1-3)GalNAc
In short: as §1

[16] = target: Fuc(a1-2)[GalNAc(a1-3)]Gal(b1-3)GlcNAc(b1-6)GalNAc
In short: as §1

[17] = target: Fuc(a1-2)[GalNAc(a1-3)]Gal(b1-4)Glc
In short: as §1

[18] = target: Fuc(a1-2)[GalNAc(a1-3)]Gal(b1-4)GlcNAc
In short: as §1

[19] = target: Fuc(a1-2)[GalNAc(a1-3)]Gal(b1-4)GlcNAc(b1-2)Man
In short: as §1

[20] = target: Fuc(a1-2)[GalNAc(a1-3)]Gal(b1-4)GlcNAc(b1-2)Man(a1-3)[Fuc(a1-2)[GalNAc(a1-3)]Gal(b1-4)GlcNAc(b1-2)Man(a1-6)]Man(b1-4)GlcNAc(b1-4)GlcNAc
In short: as §1

[21] = target: Fuc(a1-2)[GalNAc(a1-3)]Gal(b1-4)GlcNAc(b1-2)Man(a1-3)[Fuc(a1-2)[GalNAc(a1-3)]Gal(b1-4)GlcNAc(b1-2)Man(a1-6)]Man(b1-4)GlcNAc(b1-4)[Fuc(a1-6)]GlcNAc
In short: as §1

[22] = target: Fuc(a1-2)[GalNAc(a1-3)]Gal(b1-4)GlcNAc(b1-3)Gal(b1-4)GlcNAc
In short: as §1

[23] = target: Fuc(a1-2)[GalNAc(a1-3)]Gal(b1-4)GlcNAc(b1-3)Gal(b1-4)GlcNAc(b1-3)Gal(b1-4)GlcNAc
In short: as §1

[24] = target: Fuc(a1-2)[GalNAc(a1-3)]Gal(b1-4)GlcNAc(b1-3)GalNAc
In short: as §1

[25] = target: Fuc(a1-2)[GalNAc(a1-3)]Gal(b1-4)GlcNAc(b1-3)[Fuc(a1-2)[GalNAc(a1-3)]Gal(b1-4)GlcNAc(b1-6)]GalNAc
In short: as §1

[26] = target: Fuc(a1-2)[GalNAc(a1-3)]Gal(b1-4)GlcNAc(b1-6)GalNAc
In short: as §1

[27] = target: Fuc(a1-2)[GalNAc(a1-3)]Gal(b1-4)[Fuc(a1-3)]GlcNAc
In short: as §1

[28] = target: Fuc(a1-2)[GalNAc(a1-3)]Gal(b1-4)[Fuc(a1-3)]GlcNAc(b1-3)GalNAc
In short: as §1

[29] = target: Fuc(a1-2)[GalNAc(a1-4)]Gal(b1-4)GlcNAc
In short: as §1

[30] = target: Fuc(a1-2)[GalNAc(b1-3)]Gal
In short: as §1

B1: SialidaseA (Arthrobacter ureafaciens) (protein)
chain: MRSNSTSAPSLVRRAATGVLTCAVSIGLLAGLGLPAQAAPTPPNSPTLPPGSFSETNLAADRTAANFFYRIPALTYLGNDVVLAAWDGRPGSAADAPNPNSIVQRRSTDGGKTWGPVQVIAAGHVADASGPRYGYSDPSYIYDAEANKVFAFFVYSKDQGFGGSQFGNDDADRNVISSAVIESSDAGVTWSQPRLITSVTKPGTSKTNPAAGDVRSNFASSGEGIQLKYGPHKGRLIQQYAGDVRQADGSNKIQAYSVYSDDHGVTWHKGANVGDRMDENKTVELSDGRVLLNSRDNANRGYRKVAVSTDGGATYGPVSQDTELPDPANNGAIARMFPNAAQGSADAKKLIFTNANSKTGRENVSARVSCDDGETWPGVRTIRSGFSAYSTVTRLADGKFGVLYEGNYTDNMPFATFDDAWLNYVCAPLAVPAVNIAPSATQEVPVTVTNQEATTLSGATATVYTPSGWSATTVPVPDVAPGASVTVTVALTAPADASGPRSLNAAFTTADGRVSQFTFTATTPVAPQVGLTITGSAPARDVAANPYQAGDVLGYTLNVKSTANVAANSVPLTGTFDSGFLPPAAPNCRYNNLAAGASYNCTTAKHTITAADMERGYFVPEATFSITSTTTPSLTKTVQFTGAAVALRDGLISADISGARTDVGRDLATRPYAAGELVPYAFTVKNTSPFVEQVVPTAGNFSPFLPAGAGNCRYLSLPAGQSYECATPRHAVTAEEVEQGFFVPDTTWEVSAAGQSTRTYRINGGEVDLLVRDAALSATVVAEWKDADGDRFASAGDPVTFTYTVGNAGNVALTGLEAPDAGISLPFLAPGDTATATREHVLTAADVAGGSLAASAFEATARNGSKEVTATAEGQPLELKVQPAQPSKEPELTVQDLEDQTPPFDLGTAFKYRTGQKVSLAGLEYGQWYYVYLNKTGYRLGWMFPTTGDTVEFILPPEVRNGRDDVVVLDKDGRRVSFDRLQVTPKGEKI
Which “glycan array binding signal (z-score)” value [1] does the source give for B1 here?
Its value is -0.487.

What about the “glycan array binding signal (z-score)” value [2] of the same binder?
Its value is -0.517.

And the “glycan array binding signal (z-score)” value [3]?
Its value is -0.253.

What about the “glycan array binding signal (z-score)” value [4] of the same binder?
The value was -0.849.

And the “glycan array binding signal (z-score)” value [5]?
Its value is -0.841.

And the “glycan array binding signal (z-score)” value [6]?
Its value is -0.387.

What about the “glycan array binding signal (z-score)” value [7] of the same binder?
Its value is -0.31.

And the “glycan array binding signal (z-score)” value [8]?
The value was 0.016.

And the “glycan array binding signal (z-score)” value [9]?
Its value is -0.307.

And the “glycan array binding signal (z-score)” value [10]?
The value was -0.42.

What about the “glycan array binding signal (z-score)” value [11] of the same binder?
Its value is -0.538.

What about the “glycan array binding signal (z-score)” value [12] of the same binder?
The value was -0.376.

What about the “glycan array binding signal (z-score)” value [13] of the same binder?
Its value is -0.386.

What about the “glycan array binding signal (z-score)” value [14] of the same binder?
The value was -0.683.

What about the “glycan array binding signal (z-score)” value [15] of the same binder?
The value was -0.124.

And the “glycan array binding signal (z-score)” value [16]?
The value was -0.737.

What about the “glycan array binding signal (z-score)” value [17] of the same binder?
The value was -0.498.

And the “glycan array binding signal (z-score)” value [18]?
Its value is -0.821.

And the “glycan array binding signal (z-score)” value [19]?
The value was -0.707.

And the “glycan array binding signal (z-score)” value [20]?
The value was -0.021.

And the “glycan array binding signal (z-score)” value [21]?
Its value is -0.451.

What about the “glycan array binding signal (z-score)” value [22] of the same binder?
The value was -0.432.

What about the “glycan array binding signal (z-score)” value [23] of the same binder?
Its value is -0.168.

What about the “glycan array binding signal (z-score)” value [24] of the same binder?
Its value is -0.801.

What about the “glycan array binding signal (z-score)” value [25] of the same binder?
The value was -0.516.

And the “glycan array binding signal (z-score)” value [26]?
Its value is -0.733.

And the “glycan array binding signal (z-score)” value [27]?
The value was -0.364.

And the “glycan array binding signal (z-score)” value [28]?
Its value is -0.145.

What about the “glycan array binding signal (z-score)” value [29] of the same binder?
The value was -0.14.

What about the “glycan array binding signal (z-score)” value [30] of the same binder?
The value was -0.317.
